About 200 (0.44%) of roughly 45,000 compounds were called active. Inconclusive results (about 7%) are left out. Calls follow the shape of the dose curve; as a rule, active = well fitted activation curve with a large enough effect; inconclusive = small, poorly fitted or top-dose-only effect; inactive = no such curve, though single readings can be large or run the other way. The list shows a part of the results.
Experiment: qHTS of TDP-43 Inhibitors: NCGC Sytravon Library Screen; also: 0% is about no effect; nearly all actives have a fitted effect of over 55% in size
Conditions: yeast TDP-43 toxicity rescue, BacTiter-Glo growth, 24 h; series mostly up to 46.1 µM; growth rescue (activation): at the top concentration
Outline: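 TDP-43-expressing yeast, pregrown in raffinose, seeded at OD600 0.02 in galactose medium with compound for 24 hr at 30 deg C. Growth read by BacTiter-Glo luminescence, so rescue of toxicity appears as activation.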

SMILES | growth rescue (activation)
CC1CC(C)CN(S(=O)(=O)CC23CCC(CC2=O)C3(C)C)C1 (centres undefined) | inactive: 13.5%
CCOC(=O)Nc1ccc2c(COC(=O)c3ccccc3O)cc(=O)oc2c1 | inactive: -2.96%
O=C1CN(S(=O)(=O)c2ccccc2)CCN1 | inactive: -0.832%
COc1ccc(Cn2c(C(=O)O)c(CNCc3ccccc3F)c3ccc(OC)cc32)cc1 | inactive: 8.33%
CCCSc1ncc(Cl)c(C(=O)Nc2ccc(S(=O)(=O)N(C)c3ccccc3)cc2)n1 | inactive: 12.5%
Cn1ccnc1SCC(=O)c1c[nH]c2ccccc12 | inactive: 1.8%
CCOc1ccccc1-c1nc(CN2CCCN(C(=O)c3ccco3)CC2)c(C)o1 | inactive: 20.5%
COc1ccc(-c2[nH]ncc2CN2CCC(OCc3ccccc3)CC2)c(F)c1 | inactive: 11.5%
O=C(CCS(=O)(=O)c1ccc(Br)s1)Nc1ccccc1Br | inactive: 22%
CC(=O)c1ccc(NC(=O)COC(=O)c2ccccc2Nc2ccccc2)cc1 | inactive: -19.9%
Cc1cc(-c2nc3c4c5c(sc4[nH]c(=O)n3n2)CCC5)c(C)o1 | inactive: 27.3%
Cn1c(-c2cc3c(C(F)(F)F)nn(C)c3s2)n[nH]c1=S | inactive: 2.93%
COc1cccc(NC(=O)C2(C)CCN2CC2CCCCC2)c1 (centres undefined) | inactive: 12.6%
Cc1occc1C(=O)NC(C)CCc1ccccc1 (centres undefined) | inactive: -38.1%
COc1ccc(NS(=O)(=O)c2cc(NC(=O)C3CCCO3)ccc2N2CCCC2)cc1 (centres undefined) | inactive: 15.6%
O=C1N/C(=N\N=C\c2cccs2)SC1Cc1cccc(Cl)c1Cl (centres undefined) | inactive: -11.9%
CCOC(=O)Nc1ccc(OC)c([N+](=O)[O-])c1 | inactive: 17.2%
CCOC(=O)C(=NCCCN(C)C)NNc1cc(C(F)(F)F)ccc1Cl | inactive: 7.79%
CCC(=O)N1CCC1(C)C(=O)Nc1ccc(Cl)c(Cl)c1 (centres undefined) | inactive: 13.9%
CC(C)CCNC(=O)C1CCC(CNc2c(N3CCCC3)c(=O)c2=O)CC1 (centres undefined) | inactive: 1.11%
COc1ccc(Cl)cc1NC(=O)C1CC(=O)N(c2ccc(F)cc2)C1 (centres undefined) | inactive: 7.97%
CCN(CC)S(=O)(=O)c1ccc(NC=C(C#N)C#N)cc1 | inactive: 21.6%

SMILES | growth rescue (activation)
CN(C(=O)c1coc(=O)c2ccccc12)c1ccccc1Cl | inactive: 22.4%
O=C(NC1CCN(Cc2ccccc2)CC1)c1c(F)cccc1F | inactive: -0.611%
COc1ccc(NC(=S)Nc2ccccc2OC)c(OC)c1 | inactive: 7.49%
CCN1CCN(c2ccc(NC(=O)c3ccco3)cc2Cl)CC1 | inactive: 0.3%
O=C(O)c1cccnc1Oc1ccccc1 | inactive: 20.3%
COCCCN1CC(=O)N2C(c3cccc(C)c3)c3[nH]c4ccccc4c3C[C@H]2C1=O (some centres undefined) | inactive: 1.92%
COc1ccc(-c2ccc(S(=O)(=O)N3CCCC3)cc2)cc1 | inactive: 20.2%
COc1ccccc1CN(C)C(=O)COC(=O)c1c(C)noc1C | inactive: 0.62%
COc1cccc(N2CCN(C3CC(=O)N(c4ccc(Cl)cc4)C3=O)CC2)c1 (centres undefined) | inactive: 25.4%
O=C(Nc1cccc([N+](=O)[O-])c1)c1cnccn1 | inactive: 24%
CCCc1nnc(SCC(=O)NC2CCCCC2)n1CCOC | inactive: -18.1%
Cc1ccnc(NS(=O)(=O)c2ccc(Cl)nc2)c1 | inactive: 12.4%
Cc1ccc(C)c(C(=O)CCC(=O)N2CCN(c3ncccn3)CC2)c1 | inactive: 27.5%
O=C(O)c1cc(=O)c2ccccc2o1 | inactive: 6.11%
Cc1[nH]nc2c1C(c1ccc(-c3ccc(Cl)cc3)o1)C(C#N)=C(N)O2 (centres undefined) | inactive: 7.63%
O=C(COC(=O)c1cc[n+]([O-])cc1)Nc1ccc(SC(F)F)cc1 | inactive: -33.1%
O=C(O)CC1(CC(=O)N2CCOCC2)CCCC1 | inactive: 6.45%
CC(C)c1ccc(S(=O)(=O)c2ccc(NN)cc2)cc1 | inactive: 20.8%
Cc1ccc(-c2c[n+](CC(=O)N3c4ccccc4Sc4ccccc43)c3n2CCC3)cc1 | inactive: -16.9%
O=C(Cc1ccc(Cl)c(Cl)c1)NC1CCCCCC1 | inactive: -11.8%
O=C(CCSc1nc(-c2ccco2)cc(C(F)(F)F)n1)NCCc1ccccc1 | inactive: -21.5%
O=C(O)CCn1cc(/C=C2\SC(=S)NC2=O)c(-c2ccccc2)n1 | inactive: 1.08%

SMILES | growth rescue (activation)
Cc1cc([N+](=O)[O-])nn1CC(=O)N1CCCc2ccccc21 | inactive: 11.6%
Cc1cc2cc(C)c3nnc(SCC(=O)Nc4ccc(S(=O)(=O)N5CCCCC5C)cc4)n3c2cc1C (centres undefined) | inactive: 17.9%
Cc1ccc(C(=O)N/C(=C\c2ccco2)C(=O)NCCN2CCOCC2)cc1 | inactive: 7.29%
O=C(NNC(=S)NCc1ccc(Cl)cc1)c1ccc2c(c1)OCO2 | inactive: -6.98%
O=C(Nc1nc2ccccc2[nH]1)c1cc(F)cc(F)c1 | inactive: 5.43%
O=C1CN(C(=O)COC(=O)CNS(=O)(=O)/C=C/c2ccccc2)c2ccccc2N1 | inactive: 4.98%
O=C(CCl)NNc1nc(-c2ccccc2)c2cc(Cl)ccc2n1 | inactive: 8.37%
Clc1cnc(N/N=C/c2ccncc2)c(Cl)c1 | inactive: 5.34%
Cc1cccc(C)c1NC(=O)CN(C)C(=O)CCC(=O)N1CCOCC1 | inactive: 23.1%
COC(=O)C1c2ccccc2-c2ccccc21 | inactive: 13.7%
CN(C)S(=O)(=O)c1cccc(NC(=S)NCCc2ccccn2)c1 | inactive: 3.27%
COc1ccc(OC2(C)CCN(Cc3ccc(-c4ccccc4)o3)C2)cc1 (centres undefined) | inactive: 6.18%
O=C(CSc1nnc2c(n1)[nH]c1ccc(F)cc12)NC1CC1 | inactive: -7.24%
O=C(CNC(=O)c1ccco1)NCC(=O)OCc1ccccc1Br | inactive: 11%
CC1(C(=O)NS(=O)(=O)C2CC2)CCCN(C(=O)c2ccc(F)cc2Cl)C1 (centres undefined) | inactive: -3.64%
CCOc1ccccc1N(C)C(=O)c1sc2ncn(CC(=O)N3CCCCC3C)c(=O)c2c1C (centres undefined) | inactive: 6.69%
COCCN(C(=O)/C=C/c1cccc([N+](=O)[O-])c1)c1c(N)n(Cc2ccccc2)c(=O)[nH]c1=O | inactive: -6.44%
O=C(NC(=S)Nc1ccccn1)c1ccco1 | inactive: 15%
O=C(O)CCCC(=O)Nc1ccc(OCc2nc3ccccc3s2)cc1 | inactive: 11.9%
COc1ccc(Cn2c(CCC(=O)NCCC(C)C)nc3ncccc3c2=O)cc1 | inactive: -2.61%
O=C(NNS(=O)(=O)c1ccccc1F)c1cc(-c2ccccc2)n[nH]1 | inactive: -11.4%
CN(CC(=O)NC1CC(C)(C)NC(C)(C)C1)S(=O)(=O)c1cc(Cl)ccc1Cl | inactive: 6.85%

SMILES | growth rescue (activation)
COc1cc(NS(=O)(=O)c2ccc(NC(=O)C34CC5CC(CC(C5)C3)C4)cc2)ncn1 | inactive: -28.5%
COc1ccccc1CCc1nnc(CCC(=O)N(C)Cc2cccc3cnccc23)o1 | inactive: 1.09%
C#CC[N+](C)(C)CCCCCCCCCCCC | inactive: -53%
CN1CCN(CCCCOc2ccccc2C=O)CC1 | inactive: 15.4%
C=CCN1C(=O)C(CC(=O)Nc2ccc(OCC)cc2)N(Cc2ccccn2)C1=S (centres undefined) | inactive: -3.54%
CCc1ccc(/C=C2/C(=O)N(c3ccccc3)C(=S)N2CC(=O)OC)s1 | inactive: 7.85%
CCN(CC)C(=O)c1cccc(-c2csc(C(O)c3ccco3)n2)c1 (centres undefined) | inactive: 14.4%
O=C(Nc1cccc(S(=O)(=O)N2CCOCC2)c1)C1CCCCN1S(=O)(=O)c1ccccc1 (centres undefined) | inactive: -7.59%
O=C(c1cc(S(=O)(=O)N2CCCCC2)ccc1N1CCOCC1)N1CCN(Cc2ccccc2)CC1 | inactive: 2.64%
Cc1cc(N)n(-c2ccc(S(=O)(=O)c3ccc(C(C)C)cc3)cc2)n1 | inactive: 9.03%
CCn1c(CNC(=O)c2cccc(C)c2)nnc1SCC(=O)Nc1nnc(C)s1 | inactive: 24.3%
COc1cc(/C=N/Nc2ccc(C(F)(F)F)cn2)cc(OC)c1O | inactive: 26.8%
O=[N+]([O-])c1ccc(Cl)c(NC2=NCCCCC2)c1 | inactive: 9.59%
N#Cc1ccc(/C=C2\CCn3c2nc2cc(C(=O)O)ccc2c3=O)cc1 | inactive: -4.65%
O=C(N/N=C/c1ccc2c(c1)OCO2)c1ccc(Br)o1 | inactive: 24%
CCc1ccccc1Nc1ncnc2ccccc12 | inactive: -13.5%
N#C/C(C(=O)NCc1ccccc1)=C1/N=C(NC(=O)c2cccs2)c2ccccc21 | inactive: 15.4%
Cc1cc(C)c(S(=O)(=O)N2CCN(C(=O)c3cc4ccccc4o3)CC2)c(C)c1 | inactive: 10.8%
N#Cc1ccc(N2C(=O)[C@@H]3C(C(=O)c4ccc5ccccc5n4)=NN[C@@H]3C2=O)cc1 | inactive: 10%
O=C1c2cc(N3CCCC3)c([N+](=O)[O-])cc2C(=O)N1c1ccccc1 | inactive: 1.24%
O=C(Cc1ccc(Cl)cc1)N/N=C/c1ccncc1 | inactive: 7.6%
COc1ccc2c(c1OC)C(=O)N(c1ccccc1)C2=O | inactive: -14.2%

SMILES | growth rescue (activation)
CCOc1ccc(C(=O)NC(=S)Nc2ccc(NC(=O)c3ccco3)cc2)cc1[N+](=O)[O-] | inactive: 10.4%
Cc1ccccc1OCCCCN1CCCCC1 | inactive: -12.7%
CC(C)c1ccccc1NC(=O)COC(=O)Cc1c[nH]c2ccccc12 | inactive: 15.5%
O=C(CN1C(=O)c2ccccc2C1=O)NCCc1c[nH]c2ccccc12 | inactive: 5.23%
COc1cccc(NC(=O)CSc2nnc(NC(=O)C3CCC3)s2)c1 | inactive: -11.3%
O=C(C1CCN(c2nnc(N3CCCC3=O)s2)CC1)N1CCN(Cc2ccc3c(c2)OCO3)CC1 | inactive: -4.11%
CC(=O)c1cccc(OCc2cc(C(=O)NCc3nc(C)c(C)s3)no2)c1 | inactive: 26.3%
COc1ccc(-c2nc(N)n[nH]2)cc1 | inactive: 4.21%
Cc1ccnc(NC(c2ccncc2)c2c(C)[nH]c3ccccc23)c1 (centres undefined) | inactive: 16.1%
COc1ccc(/C=N/OCC(=O)NC(c2ccccc2)c2ccccc2)cc1OC | inactive: 2.37%
Cc1ccc(C(=O)NC(=S)Nc2nc(-c3cccc([N+](=O)[O-])c3)cs2)c(Cl)c1 | inactive: -4.25%
CCn1c(=O)c(-c2nc3ccccc3[nH]2)c(O)c2ccccc21 | inactive: 2.49%
Cc1ccc(N2CCN(C(=O)c3cccs3)CC2)c(C)c1 | inactive: 12.1%
COc1ccc(N2C(=O)CSCC2=O)cc1OC | inactive: 5.29%
CC(=O)c1cc(-c2ccccc2)n(CC(=O)Nc2cccc(C)c2)c1C | inactive: 9.76%
COc1ccc(CCNC(=O)COc2ccc(S(=O)(=O)N3CCCC3)cc2)cc1 | inactive: 1.37%
CSc1ccc(Cl)c(C(=O)OCC(=O)N2CCOCC2)c1 | inactive: 11.9%
O=C(NCCN1C(=O)S/C(=C\c2ccccc2F)C1=O)C1CCCN1C(=O)c1cccs1 (centres undefined) | inactive: -7.29%
CCCC(C)c1nnc(NC(=O)C2CC(=O)N(CCc3ccc(F)cc3)C2)s1 (centres undefined) | inactive: -14.8%
CN(CC(=O)Nc1cccc(S(=O)(=O)NC2=NCCCCC2)c1)Cc1ccc(C(C)(C)C)cc1 | inactive: -2.73%
CCN(C(=O)COc1ccc(N(C)S(=O)(=O)c2ccc(NC(C)=O)cc2)cc1)C1CCCCC1 | inactive: 8.07%

Source: PubChem BioAssay AID1347073 (National Center for Advancing Translational Sciences (NCATS), 2019)
